Assay results: the RNAGym collection of RNA variant scans (doi:10.1101/gad.245936.114)
Variants at the floor of the assay are shown more often than the library holds them.

B1: tRNA (parent)
chain: CUCUCGGUAGCCAAGUUGGUUUAAGGCGCAAGACUUUAAUUUAUCACUACGAAAUCUUGAGAUCGGGCGUUCGACUCGCCCCCGGGAGAUUUUUUCCUCGAGCAA

Variants of: B1
Experiment: nonsense suppression (GFP-seq) (ratio to wild type); higher = more function; SUP4oc tRNA, yeast GFP reporter sort-seq
How it was run: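 Yeast carrying genome-integrated SUP4oc tRNA variants from a library with ~3% random mutations were grown in raffinose/galactose medium with 80 mg/L adenine. Each strain also carried a galactose-driven GFP ochre reporter and RFP. Cells were sorted into GFP/RFP bins, and each bin was Illumina-sequenced (phred ≥30). Nonsense suppression (GFPSEQ) is the bin median GFP/RFP, weighted by each variant's estimated cell share per bin, relative to wild-type SUP4oc; variants needed ≥100 reads and ≥30 cells.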

Row | Variant | nonsense suppression
1 | U20C C75U | 0.843
2 | U20C U57G C75G | ≤ 0.026
3 | U20C C80A | ≤ 0.026
4 | U20C C80G | ≤ 0.026
5 | U20C G69C U71C | ≤ 0.026
6 | G19U C82U A89G | ≤ 0.026
7 | U20C U55A | ≤ 0.026
8 | G19U G67U | ≤ 0.026
9 | U20C G32C U55C C83A | ≤ 0.026
10 | U20C A31G G86C | ≤ 0.026
11 | U20C U70G | ≤ 0.026
12 | U20A A23G C27U | ≤ 0.026
13 | U20C A30U C79G G88A | ≤ 0.026
14 | U20A A23G U63C | ≤ 0.026
15 | U20A A60G A89G | ≤ 0.026
16 | U20C G73C | ≤ 0.026
17 | U20C C29U A31G | ≤ 0.026
18 | U20C U21A | 0.188
19 | G19U U21C | ≤ 0.026
20 | U20C G67C G88A | ≤ 0.026
21 | G19U C80A | ≤ 0.026
22 | U20C A23C A54C U58C G69C | ≤ 0.026
23 | U20A C29U U58C G66A | ≤ 0.026
24 | U20C A31C C79A G85C | ≤ 0.026

Row | Variant | nonsense suppression
25 | U20G A24G G59C | ≤ 0.026
26 | U20C G26C | ≤ 0.026
27 | G19U C75U | ≤ 0.026
28 | G19U A89G | ≤ 0.026
29 | U20A A24U C27A A54C U71A | ≤ 0.026
30 | U20A C34U | ≤ 0.026
31 | G19U U71G | ≤ 0.026
32 | U20A A24G A89C | ≤ 0.026
33 | U20C G84U | ≤ 0.026
34 | U20C U35G C80A G84C | ≤ 0.026
35 | U20C C34U U35C | ≤ 0.026
36 | U20C U21G C27A U57C G78A | ≤ 0.026
37 | U20A G32U G86A | ≤ 0.026
38 | G19U G69A G88A | ≤ 0.026
39 | G19U C27U G66C G69C | ≤ 0.026
40 | U20A C81A | ≤ 0.026
41 | U20A C29A | ≤ 0.026
42 | G19U C56U | ≤ 0.026
43 | G19U G25U C83U | ≤ 0.026
44 | U20C A30U | 0.0386
45 | U20C C64U | 0.0503
46 | U20A A62C | ≤ 0.026
47 | G19U G59A G86C | ≤ 0.026
48 | U20C C83A | ≤ 0.026

Row | Variant | nonsense suppression
49 | U20A G66C | ≤ 0.026
50 | U20A G28U G84C | ≤ 0.026
51 | U20C A33C U76A | ≤ 0.026
52 | U20A C34U G66U | ≤ 0.026
53 | U20C A87U | 0.0273
54 | U20C A87C | ≤ 0.026
55 | U20A G61C | 0.0711
56 | U20A A24C U76C | ≤ 0.026
57 | U20G A23U A31C | ≤ 0.026
58 | U20C C27U A87G | ≤ 0.026
59 | G19U C34U A62C | ≤ 0.026
60 | G19U A54G G61C | ≤ 0.026
61 | U20G A24U G67U | ≤ 0.026
62 | U20A U35G A60C G69A C82A | ≤ 0.026
63 | U20A A30C | ≤ 0.026
64 | U20A A23U U35G G85C | ≤ 0.026
65 | G19U U70G | ≤ 0.026
66 | U20C A23U C34U G61U | ≤ 0.026
67 | G19U A54U C72G | ≤ 0.026
68 | G19U A31G U58G | ≤ 0.026
69 | G19U U63C C77U G78C | ≤ 0.026
70 | U20A U22G G67A U71C | ≤ 0.026
71 | U20A G28U U70A C81G | ≤ 0.026
72 | U20A G28U U70A C81U | ≤ 0.026

Row | Variant | nonsense suppression
73 | G19U U22C U70C C79U | ≤ 0.026
74 | U20A U71A | ≤ 0.026
75 | U20A U76C | 0.719
76 | U20C G85A | 0.861
77 | U20C G32U U35G | ≤ 0.026
78 | G19U C83U | ≤ 0.026
79 | U20A G84U A89G | ≤ 0.026
80 | U20A U70G G85C | ≤ 0.026
81 | U20C A87C G88U | ≤ 0.026
82 | G19U C68G | ≤ 0.026
83 | G19U C68U | ≤ 0.026
84 | G19U G25C G78C | ≤ 0.026
85 | U20A G78A | 0.0977
86 | U20C G25U A89C | ≤ 0.026
87 | U20A G32A | ≤ 0.026
88 | G19U A60U G73U | ≤ 0.026
89 | G19U G28A G86A | ≤ 0.026
90 | U20C C72U | ≤ 0.026
91 | U20A U58G A87C | ≤ 0.026
92 | U20A U55A G73A C80G | ≤ 0.026
93 | U20C A33G C82G | ≤ 0.026
94 | G19U U63A | ≤ 0.026
95 | G19U A33G U70G | ≤ 0.026
96 | U20C C80G C82U | ≤ 0.026

Row | Variant | nonsense suppression
97 | G19U C27A U57C | ≤ 0.026
98 | U20A U22A C56G | ≤ 0.026
99 | U20C A24G C82A G85A | ≤ 0.026
100 | U20A G88A | ≤ 0.026
101 | U20A G88C | ≤ 0.026
102 | G19U G65A | ≤ 0.026
103 | U20C C83G G86A | ≤ 0.026
104 | U20C A33G C56G | ≤ 0.026
105 | U20A A54U U57C | ≤ 0.026
106 | U20C U55G A87U | ≤ 0.026
107 | G19U U35G G84C | ≤ 0.026
108 | G19U U20G U55C C68A C81G | ≤ 0.026
109 | U20C U22A A60C | ≤ 0.026
110 | U20C A89U | 0.0684
111 | U20C A89C | ≤ 0.026
112 | U20C A23C G88A | ≤ 0.026
113 | U20A G28A | 0.813
114 | U20A G28C | 0.182
115 | U20C A24U C27U | ≤ 0.026
116 | U20G A30G C64A C82G C83U | ≤ 0.026
117 | U20A A24U | 0.0696
118 | U20G A24C G61A A87G | ≤ 0.026
119 | U20A A33C A89U | ≤ 0.026
120 | U20A C56U | ≤ 0.026

Row | Variant | nonsense suppression
121 | G19U A54C U63A | ≤ 0.026
122 | U20C U22C C56G U70G U71A A74G C80G A89C | ≤ 0.026
123 | U20C U22G U71G | ≤ 0.026
124 | U20A A74U | 0.0745
125 | G19U U20G G59C G67U | ≤ 0.026
126 | U20C C82A | ≤ 0.026
127 | U20C U58G C72A G84A | ≤ 0.026
128 | U20C G59C | ≤ 0.026
129 | U20A C80U A89G | ≤ 0.026
130 | U20A C77G G78A C80A | ≤ 0.026
131 | U20A A24C C82A | ≤ 0.026
132 | U20A A60C G78A C80A | ≤ 0.026
133 | G19U U76C | ≤ 0.026
134 | U20C A24G | ≤ 0.026
135 | G19U G66C | ≤ 0.026
136 | U20G A30C | ≤ 0.026
137 | G19U G59C A87U | ≤ 0.026
138 | U20C U58G A60U U63G G66A | ≤ 0.026
139 | G19U A74U G85C | ≤ 0.026
140 | U20A U22C | 1.11
141 | U20A U35G A62C G67A | ≤ 0.026
142 | U20C C29U | 0.0276
143 | U20A G73U | ≤ 0.026
144 | U20A G73C | 0.0366

Row | Variant | nonsense suppression
145 | U20C A23C G84A | ≤ 0.026
146 | U20C U55A U57C G73A | ≤ 0.026
147 | U20A A31C | ≤ 0.026
148 | U20A U58A U63A | ≤ 0.026
149 | G19U G28C C75U | ≤ 0.026
150 | G19U U57C U63C | ≤ 0.026
151 | U20C G86A | ≤ 0.026
152 | U20C G86C | ≤ 0.026
153 | U20A G65C | ≤ 0.026
154 | U20G A31C C72G | ≤ 0.026
155 | G19U U35G | ≤ 0.026
156 | G19U U63G G65C G67C C68A C79G | ≤ 0.026
157 | U20A C72G A87C | ≤ 0.026
158 | U20A C80U A87U | ≤ 0.026
159 | G19U U22G C29U C79A C81A | ≤ 0.026
160 | G19U C29A G59A | ≤ 0.026
161 | U20C C34G A54G G88C | ≤ 0.026
162 | U20A U22C A33U | ≤ 0.026
163 | U20C G65A | ≤ 0.026
164 | U20A C34A U58G G61A | ≤ 0.026
165 | G19U A30U | ≤ 0.026
166 | G19U U71G G84A | ≤ 0.026
167 | U20C U35G G73C | ≤ 0.026
